About 540 (0.36%) of roughly 150,000 compounds showed an effect of 50% or more. This is one part of the list.

This test concerns Plasmodium falciparum. As to the kind of experiment: Primary screen in NF54 nanoGlo assay, in single point, at 2uM, 72h; a lower Z score goes with more inhibition. In kind it is functional, Erythrocyte. Particulars: timepoint 72 hour.
`CN(C)C1(CNc2nc(C(F)(F)F)nc3cc4c(cc23)OCO4)CCCCCC1`: the “% Inhibition” value is reported as 54% and the Z score is -8.21.
`FC(F)(F)c1cc(Nc2ccc(-c3cncnc3)cc2)nc(-c2ccncc2)n1`: the “% Inhibition” value is reported as -11% and the Z score was found to be 2.38.
In the case of `CCc1ccc2nc(-c3c(C)noc3C)[nH]c2c1`, the “% Inhibition” value is reported as -2% and the Z score is recorded as 0.42.
As for `CN[C@@H](CO)c1cccc(-c2cc(CN3CCCC3)ccc2F)c1`, the “% Inhibition” value stood at 4% and the Z score is given as -0.77.
For the compound `Cc1cc(NCc2cc(-c3cccc(F)c3)no2)nc(N)n1`, the “% Inhibition” value is listed as 4% and the Z score is listed as -0.94.
With `Cn1cc(CCN2CCC(N3CCN(c4cccc(Cl)c4)CC3)CC2)nn1`, the “% Inhibition” value is given as -4% and the Z score was found to be 0.56.
Taken in the same sequence, the figures for `Cc1ncsc1CCCNC(=O)c1cc(=O)n(-c2ccccc2)[nH]1` were -1% and 0.1.
`O=C(CN1CCCN(c2cncc(OCC3CCCC3)n2)CC1)N1CCCC1`: the “% Inhibition” value is given as -4% and the Z score was found to be 0.66.
`O=C1CC[C@H](NCc2nc3cc(Cl)ccc3[nH]2)CN1Cc1ccccc1`: the “% Inhibition” value is -8% and the Z score was 1.64.
With `CS(=O)(=O)C1(C(=O)N2CC[C@H](Nc3ccc4nccn4n3)C2)CCCC1`, the “% Inhibition” value was 0% and the Z score is -0.05.
Consider `CS(=O)(=O)N1CCN(CCN[C@H]2CCOC23CCCC3)CC1`, for which the “% Inhibition” value is on record as -2% and the Z score turned out to be 0.3.
Consider `CS(=O)(=O)Cc1ccc(N2CC3CN(CC4CC4)CC3(CO)C2)nc1` (stereo unspecified), for which the “% Inhibition” value came to 1% and the Z score is -0.15.
With `Cc1nn(-c2ccccn2)c(C)c1CCNS(=O)(=O)c1c(F)cccc1F`, the “% Inhibition” value is listed as -9% and the Z score was 1.61.
With `Cc1nc2ccc(C(=O)N[C@@H](C)c3nc(CC(C)C)no3)cc2o1`, the “% Inhibition” value was -8% and the Z score was found to be 1.54.
In the case of `CC1CCC(C)N1CCN1CCN(CCn2ccc3cc(Cl)ccc32)CC1` (stereo unspecified), the “% Inhibition” value is recorded as 3% and the Z score is -0.62.
In the case of `Cc1cc(-c2nc(C(=O)NC3CCN(CC(F)F)CC3)co2)ccn1`, the “% Inhibition” value is reported as -9% and the Z score came out at 1.86.
For the compound `OCCCNc1nn2cc(-c3ccc(F)cc3)nc2s1`, the “% Inhibition” value worked out at 41% and the Z score is reported as -7.13.
The corresponding values for `CN1CCOC2(CCN(c3cc(C(F)(F)F)nc(N4CCCC4)n3)CC2)C1` are -9% and 1.59.
Taken in the same sequence, the figures for `CC(=O)NC1CCN(C(=O)c2cccc(-c3ccc4occc4c3)c2)CC1` were 5% and -0.82.
Taken in the same sequence, the figures for `CC1=CC(C)CC(CNC2CCN(c3ccccn3)C2)C1` (stereo unspecified) were -7% and 1.45.
Take `Cc1n[nH]c(=O)nc1Nc1ccc(Oc2ccccc2)cc1`: the “% Inhibition” value turned out to be 5% and the Z score is -1.09.
Consider `N#CC1(c2ccc(-c3ccc(C(=O)N[C@H]4CCOC4)cc3)cc2)CCCC1`, for which the “% Inhibition” value is -11% and the Z score is 1.9.
Take `Clc1cccc(-c2noc3ncnc(N4CCC(N5CCCCC5)CC4)c23)c1`: the “% Inhibition” value was 3% and the Z score was -0.44.

The % Inhibition is the relative decrease from the control value, in per cent.
